PubChem BioAssay (NCI)
Where “and” joins values, the source holds several entries; their conditions need not be identical. Identical values can stand only once.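 Test compounds were applied to cells in 96-well plates for 48 hours at 5 doses. Abbreviation: GI50, concentration required for 50% inhibition of growth. TGI denotes the concentration required for complete inhibition of growth.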 Peptide text beside a SMILES is read from it. * marks the point of attachment. Palmitoyl = CCCCCCCCCCCCCCCC(=O)*

System: NCI-H322M lung
Test: NCI anticancer screen, dose series, 48 h

Structure (SMILES) | TGI | GI50
COC1=CC2(C=CC1=O)CCN=c1c(O)c3c(c(O)c12)=NC=N3 (centres undefined) | > 100 µM | 
O=C(NCCCCl)c1c(O)c2ccccc2[nH]c1=O | > 100 µM | 
CC(C)=C1CCC(CN2CCCC2)C1=O (centres undefined) | > 100 µM | 
C[C@@H](C[C@@H](O)[C@H](O)C(C)(C)O)[C@H]1CC=C2[C@]3(C)[C@H](O)C[C@H]4C(C)(C)[C@H](O)CC[C@]4(C)[C@H]3CC[C@@]21C | 28.1 µM | 
Nc1ccc2c(c1)CN1C(=O)c3ccccc3C1=N2 | > 125 µM | 
CN1C(=O)C23CC4=CC=CC(O)C4N2C(=O)C1(CO)SS3 (centres undefined) | 0.424 µM | 
Nc1ncnc2c1ncn2Cc1ccc(C23CC4CC(CC(C4)C2)C3)c(O)c1 | > 100 µM | 12.1 µM
O=C1O/C(=C\c2ccc(O)cc2)C(c2ccc(O)c(Cl)c2)=C1Br | 35.8 µM | 
COc1cc(C(=O)N/N=C/c2cccc([N+](=O)[O-])c2)cc(OC)c1OC | > 100 µM | 6.33 µM
Cn1cc(-c2nn3cc(-c4cccs4)nc3s2)c2cc(F)ccc21 | > 100 µM | 4.71 µM
O=C(NO)C(O)C(O)C(O)C(O)CO (centres undefined) | > 100 µM | > 100 µM and 53.6 µM
CSc1s[s+]c(SC)c1-c1ccccc1 | > 100 µM | 
CC(=O)Nc1ccc(-n2cnc3cc(-c4ccc(OCCN5CCCCC5)cc4)ccc32)cc1 | > 33.3 µM | 7.95 µM
CCCCCCCCCCCCCCCC(=O)NC(CCCCN)C(=O)NCC(=O)NC(Cc1ccccc1)C(=O)N1CCCC1C(=O)NC(CO)C(=O)NC(Cc1ccc(O)cc1)C(=O)NC(CCCCN)C(=O)NC(CC(C)C)C(=O)NC(CCCN=C(N)N)C(=O)N1CCCC1C(=O)NCC(N)=O (centres undefined) (Palmitoyl-KGFPSYKLRPG-NH2; configuration not given here) | 51.9 µM | 20.3 µM
COc1ncnc2c(-c3ccco3)cn(COCc3ccccc3)c12 | > 50 µM | > 50 µM
O=C(O)c1ccccc1-c1ccccc1C(=O)c1ccccc1 | > 100 µM | 
C=C(C)[C@]12CC(C)C34OC(/C=C\C=C\CCCCCCCCC)(O[C@@H]1[C@@H]3[C@@H]1O[C@]1(CO)[C@@H](O)[C@]1(O)C(=O)C(C)=C[C@@H]41)O2 (some centres undefined) | 11.9 µM | 
OCCCCC#Cc1ccccc1C#Cc1cnccn1 | > 100 µM | 48.8 µM
CC(C)(C)c1ccc(S(=O)(=O)N[C@H]2CC[C@H]3[C@@H]4CCc5cc(O)ccc5[C@H]4CC[C@]23C)cc1 | 16.3 µM | 4.53 µM
Cc1cc(N)c2ccccc2[n+]1CCCCCCCCCC[n+]1c(C)cc(N)c2ccccc21 | 4.19 µM and 14.7 µM and 25.1 µM | 1.05 µM and 1.7 µM
CCOC(=N)CC(=O)NC(C)c1ccccc1 (centres undefined) | > 100 µM | 
CCC1(O)CN(CCOC)[C@H]2C[C@@H]1C(=O)c1[nH]c3ccccc3c12 (some centres undefined) | > 100 µM | 
OCc1ccccc1OC1OC(CO)C(O)C(O)C1O (centres undefined) | > 100 µM | 

Structure (SMILES) | TGI | GI50
c1csc(-c2ccc(-c3ccc(-c4cccs4)s3)s2)c1 | > 100 µM | 
CCOc1cccnc1/C=N/NC(N)=S | > 100 µM | 3.8 µM
C=C1c2nc3ccccc3n2C=C(c2ccccc2)N1c1ccc(OC)cc1 | > 100 µM | 
CN(C)CCNc1nc2ccccc2c2c1C(=O)c1ccccc1-2 | 3.77 µM | 
COC(=O)c1cc2c3c(c(C(C)=O)c(OC)c2[nH]1)NCC3 | > 50 µM | 
C=CC(C)(C)n1cc(C2=C(O)C(=O)C(c3cn(C(C)(C)C=C)c4ccccc34)=C(OC(C)=O)C2=O)c2ccccc21 | 2.31 µM | 
Cc1cccc(CC(C)(C)C)c1NC(=O)C(=O)C(C(=O)c1ccc2ccccc2c1)C1OC(=O)c2ccccc21 (centres undefined) | > 100 µM | 
Cc1cc(S(=O)(=O)NC(=NCC(=O)NN)NN)c(S)cc1Cl | > 10 µM | 
COC(=O)c1ccc(OCc2ccc3nc(-c4ccccc4)c(Cl)nc3c2)cc1 | > 100 µM | 
CSc1nc2c(ncn2C2OCC(O)C(O)C2O)c(=O)[nH]1 (centres undefined) | > 100 µM | 
COC(=O)Nc1nc2ccc(Sc3ccc(NC(=O)Nc4cc(C(F)(F)F)ccc4F)cc3)cc2[nH]1 | 17.2 µM | 5.55 µM
CCCCCCCCCCCCCCCC(=O)N[C@H]1CCc2cc(OC)c(OC)c(OC)c2-c2ccc(SC)c(=O)cc21 | 34.8 µM and 37.9 µM | 3.35 µM
CCCCCCCCC(=O)NCCCNCCCNC(=O)CCCCCCCC | 21.3 µM | 
CSC1(SC)CCCCCCCCCCC1 | > 100 µM | 
CCOC(=O)Cc1nc2c(=O)[nH]cnc2n1C1OC(COC(C)=O)C(OC(C)=O)C1OC(C)=O (centres undefined) | > 100 µM | 
N#CC1(C#N)C2C=CC(C3CCC=C32)C1(C#N)C#N (centres undefined) | > 10 µM | 
CCOP(=O)(OCC)C(F)(F)CC1CCCCC1 | > 10 µM | 
COC(=O)CCc1ccc2c(c1)CC1(C2)Cc2ccc(CCC(=O)OC)cc2C1 | > 100 µM | 
CCSc1nc(N)c2cnn(C)c2n1 | > 100 µM | 30.5 µM
BrCC[P+](c1ccccc1)(c1ccccc1)c1ccccc1 | 39.7 µM | 
O=C(CC(C(=O)O)N1CCOCC1)c1ccccc1 (centres undefined) | > 100 µM | 
CCOC(=O)Cc1csc(NC(=O)C(OC(=O)c2ccc(N)cc2)c2ccccc2)n1 (centres undefined) | > 100 µM | 59.6 µM
Cc1cccc(N2C(=O)/C(=C/c3ccc(N(CCC#N)CCC#N)cc3C)N=C2c2cc([N+](=O)[O-])ccc2Cl)c1 | > 100 µM | 

Structure (SMILES) | TGI | GI50
O=[N+]([O-])O.[NH-]C1CCCCC1[NH-].[NH-]C1CCCCC1[NH-].[NH-]C1CCCCC1[NH-].[OH-].[OH-].[OH-].[Pt+4].[Pt+4].[Pt+4] (centres undefined) |  | 0.596 µM
CCOc1cc(C=O)ccc1O | > 100 µM | 
CCOC(=O)NNC(=O)NC12CC3CC(CC(C3)C1)C2 | > 100 µM | 
COc1ccc(N=C2NN=C(c3c[nH]c4ccccc34)CS2)cc1OC | > 100 µM | 21.6 µM
CCCCC(=C=C1CCCCC1O)C1CCCN1C(=O)OC(C)(C)C (centres undefined) | 29.6 µM | 
C/C(=N\NC(=S)N1CCC(C2CCN(C(=S)N/N=C(\C)c3ccccn3)CC2)CC1)c1ccccn1 | > 100 µM | 
CCCCCCCCCCCCNC(=O)[C@H]1CSC(c2ccc(OC)c(F)c2)N1 (some centres undefined) | 3.2 µM | 1.79 µM
c1ccc(COc2ncccc2C2SCCCS2)cc1 | > 100 µM | 
C=CC[PH+](c1ccccc1)c1ccccc1.C=CC[PH+](c1ccccc1)c1ccccc1.[Cl][Pt][Cl] | 45.8 µM | 17.8 µM
COc1ccc(C[C@H]2COC(=O)[C@@H]2Cc2cc(OC)c(OC)c(OC)c2)cc1OC | > 100 µM | 
c1ccc(C/C(=N\Nc2nc3ccccc3o2)c2ccccn2)cc1 | 0.945 µM | 
O=[N+]([O-])c1cccc(-c2ncc(-c3ccc(Cl)cc3Cl)[nH]2)c1 | > 54.9 µM | 9.42 µM
COc1ccc(-n2nc(C)c3c2N(C)C2(C)C[C@@H]4C3(C)[C@@H]3CC4(C2)N(C)c2c(c(C)nn2-c2ccc(OC)cc2)[C@H]3C)cc1 (some centres undefined) | > 100 µM | 22.4 µM
C=CC1(CCC(Br)C(C)(C)Cl)CO1 (centres undefined) | > 10 µM | 
C=C1C(=O)O[C@H]2C(=O)[C@H](C)CCC[C@@](C)(O)/C=C\C[C@@]3(C)O[C@@H]3C[C@@H]12 | 74.5 µM | 
Cc1[nH]c(=O)nc(N/N=C/c2ccc(O)cc2)c1C(=O)Nc1ccc(Cl)cc1 | > 100 µM | 
O=C1/C(=C/c2ccccc2)CN(C(=O)OCC(Cl)(Cl)Cl)C/C1=C\c1ccccc1 | 47 µM | 
O=C(OCc1nc2ccc(Br)cc2c(=O)n1-c1ccccc1)c1ccccc1O | > 100 µM | 
COc1ccccc1NC(=O)C(=O)C1C(=O)Nc2ccccc2S1=O (centres undefined) | > 100 µM | 
O=c1[nH]c2cc(O)ccc2n2cc3c(F)cccc3c12 | > 100 µM | 5.03 µM
O=C1N2CCc3c([nH]c4ccccc34)C23CC2CCCC12S3 (centres undefined) | > 50 µM | 
O=C1c2cccc3cccc(c23)C(=O)N1CCCN1CCN(CCCN2C(=O)c3cccc4cccc(c34)C2=O)CC1 | > 100 µM | 
Cn1c(COC(=O)NCCN2CCOCC2)nc2c(N3CCOCC3)nc(-c3ccccc3)nc21 | 3.67 µM | 1.72 µM

Structure (SMILES) | TGI | GI50
CCN(CC)c1ccc(C(=C2C=CC(=[N+](CC)CC)C=C2)c2ccccc2)cc1 | 0.912 µM | 
COc1cc(C2c3cc4c(cc3[C@@H](Nc3cccc(O)c3)C3COC(=O)[C@H]23)OCO4)cc(OC)c1O (some centres undefined) | 43.7 µM | 
COC1C(CO)OC(n2c3ccccc3c3c4c(c5c6ccccc6[nH]c5c32)C(=O)NC4=O)C(O)C1OC(=O)C(N)CCCCN (centres undefined) | 2.99 µM | 0.798 µM
COC(=O)CNC(=O)/C=C/[C@H](O[Si](C)(C)C(C)(C)C)[C@H](/C=C/C(=O)NCC(=O)OC)O[Si](C)(C)C(C)(C)C | > 25 µM | 
N#Cc1nnc2c3c(-c4ccc(Cl)cc4)c(C#N)c(=O)[nH]c3nn2c1N | 33.7 µM | 
Fc1nc(F)nc(-c2c3ccccc3c3n2CCS3)n1 | > 100 µM | 
CN(C)CCNC(=O)c1cccc2c(NC(CS)C(=O)O)c3ccccc3nc12 (centres undefined) | 77.9 µM | 
COC(=O)C(=O)C(C(=O)C(=O)Nc1ccccc1C(N)=O)c1nc2ccc(C(=O)c3ccccc3)cc2[nH]c1=O (centres undefined) | > 100 µM | 
CN(C)CCn1c(=O)c2ccc(NCCNCCO)c3c(=O)c4cc(O)ccc4n(c1=O)c23 | 5.02 µM | 
CC(C)[Si]1(C(C)C)OCC2OC(n3cnc4c(N)ncnc43)C(N)C2O[Si](C(C)C)(C(C)C)O1 (centres undefined) | > 79.7 µM | 
O=C1c2ccccc2C(=O)c2c1ccc1c3ccccc3n(Cc3ccccc3)c21 | > 100 µM | 
CCNC(=O)Oc1ccc(/C(=C(\C)c2ccc(Cl)cc2)c2ccc(OCCN3CCCCC3)cc2)cc1 | 21.1 µM | 8.51 µM
O=C(Cc1nc2ccc([N+](=O)[O-])cc2[nH]c1=O)C(=O)Nc1cc(Cl)c(Cl)cc1Cl | > 100 µM | 
O=C(CCN1CCCCC1CO)Nc1ccc2c(c1)C(=O)c1ccc(NC(=O)CCN3CCCCC3CO)cc1C2=O (centres undefined) | 42.2 µM | 
COc1ccc(C=O)cc1Oc1ccc(C[C@H]2c3c(cc(OC)c4c3Oc3cc5c(cc3O4)CCN(C)C5=O)CCN2C)cc1 | 17.6 µM | 
C=C(C)[C@@H]1CCC[C@]2(C(=O)O)CC[C@]3(C)[C@@H](CC[C@@H]4[C@@]5(C)C/C(=C/c6ccncc6)C(=O)C(C)(C)[C@@H]5CC[C@]43C)[C@@H]12 | 13.4 µM | 3.47 µM
COc1cc2c(cc1OC)C1Cc3ccccc3CN1CCC2 (centres undefined) | > 100 µM | 
COc1cc([C@@H]2c3cc4c(cc3[C@@H](Nc3ccc(Cl)cc3C(=O)c3ccccc3Cl)[C@H]3COC(=O)[C@H]23)OCO4)cc(OC)c1OC | > 100 µM | 
CCCCCCCCCCCCCCCCCC1=NC(C)(C)CN1CCO | 10.5 µM | 2.8 µM
CC(=O)OCC1OC(n2c3c(c(-c4ccco4)c(C#N)c2=S)CCCC3)C(OC(C)=O)C(OC(C)=O)C1OC(C)=O (centres undefined) | > 100 µM | 
O=C(Nc1ccccc1)N1N=C(c2ccccc2)C1c1ccccc1 (centres undefined) | > 100 µM | 
Cc1ccc(S(=O)(=O)NC(=O)NS(=O)(=O)O)cc1 | > 100 µM | 
COc1cc(OC)c(/C=C/S(=O)(=O)Cc2ccc(OC)c(NCC(=O)O)c2)c(OC)c1 | > 100 µM | 0.184 µM
